# In the supplement of paper PMC3334620:
# Whole data set: some 33,000 sequences, median “E-score (-0.5 to 0.5)” near -0.053, cut for the highest 2% near 0.37. The list shows a part of the results.
# Biological target: Hap1 (UniProt P0CE41)
# Test: PBM E-score (8-mer binding enrichment) (E-score (-0.5 to 0.5)); higher = stronger / more preferred TF binding; most listed sequences are background and not binding sites
# Settings: protein concentration: 200 nM; construct: GST-DNA-binding domain
# How it was run: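 E-scores (a modified Wilcoxon-Mann-Whitney statistic) were assigned by the Universal PBM Analysis Suite to every ungapped eight-base word pooled with its reverse complement. The input came from universal all-10-mer Agilent arrays made double-stranded by primer extension and probed with GST-tagged yeast transcription factors at about 100-200 nM. Fluorescent anti-GST detected bound protein, and masliner normalised the scans.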
# Sequence of UniProt P0CE41 (P0CE41 whole entry): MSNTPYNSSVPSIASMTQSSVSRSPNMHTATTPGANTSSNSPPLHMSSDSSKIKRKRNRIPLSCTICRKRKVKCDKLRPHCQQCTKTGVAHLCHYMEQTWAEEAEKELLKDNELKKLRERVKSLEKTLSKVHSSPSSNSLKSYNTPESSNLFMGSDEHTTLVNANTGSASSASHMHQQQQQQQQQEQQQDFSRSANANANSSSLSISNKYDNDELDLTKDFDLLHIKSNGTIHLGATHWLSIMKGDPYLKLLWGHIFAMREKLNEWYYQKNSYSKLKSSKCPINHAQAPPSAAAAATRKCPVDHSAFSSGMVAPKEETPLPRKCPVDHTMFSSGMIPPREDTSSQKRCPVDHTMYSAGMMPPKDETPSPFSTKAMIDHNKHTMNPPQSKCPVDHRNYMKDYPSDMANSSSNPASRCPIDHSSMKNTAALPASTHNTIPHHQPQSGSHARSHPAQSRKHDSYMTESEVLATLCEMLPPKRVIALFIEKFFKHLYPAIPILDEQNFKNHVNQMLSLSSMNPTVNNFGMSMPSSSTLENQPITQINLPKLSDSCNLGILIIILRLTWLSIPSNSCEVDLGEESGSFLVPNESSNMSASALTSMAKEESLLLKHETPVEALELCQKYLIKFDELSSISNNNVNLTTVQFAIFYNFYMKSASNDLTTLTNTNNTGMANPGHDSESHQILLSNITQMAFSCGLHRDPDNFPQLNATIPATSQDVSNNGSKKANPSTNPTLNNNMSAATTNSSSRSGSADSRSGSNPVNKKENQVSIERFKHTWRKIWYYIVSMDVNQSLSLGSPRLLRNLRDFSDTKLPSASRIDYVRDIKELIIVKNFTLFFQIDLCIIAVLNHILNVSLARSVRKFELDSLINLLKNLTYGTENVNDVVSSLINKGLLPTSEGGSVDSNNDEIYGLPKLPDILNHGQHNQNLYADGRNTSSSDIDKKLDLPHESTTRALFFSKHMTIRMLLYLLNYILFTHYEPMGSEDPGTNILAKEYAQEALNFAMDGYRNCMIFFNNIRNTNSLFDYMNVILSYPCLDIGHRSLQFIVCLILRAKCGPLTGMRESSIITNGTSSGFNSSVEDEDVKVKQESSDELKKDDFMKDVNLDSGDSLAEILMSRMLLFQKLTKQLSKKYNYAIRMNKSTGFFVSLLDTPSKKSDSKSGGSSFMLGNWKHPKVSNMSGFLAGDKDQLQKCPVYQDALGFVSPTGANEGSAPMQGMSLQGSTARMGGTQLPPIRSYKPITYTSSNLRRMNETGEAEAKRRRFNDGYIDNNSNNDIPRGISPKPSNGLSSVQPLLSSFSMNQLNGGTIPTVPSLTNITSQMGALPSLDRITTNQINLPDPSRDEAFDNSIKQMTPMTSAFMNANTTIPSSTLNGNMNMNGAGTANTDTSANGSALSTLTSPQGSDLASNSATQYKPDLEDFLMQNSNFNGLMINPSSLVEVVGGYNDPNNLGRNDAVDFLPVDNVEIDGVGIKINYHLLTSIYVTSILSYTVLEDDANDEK
row,Sequence,PBM E-score
1,GCAGCAGA,-0.241
2,ATAATCCG,0.304
3,GTTTTCTA,-0.0815
4,GCCCTGTA,-0.0673
5,AGTACTTC,0.153
6,GAAAAAGA,-0.118
7,ATTCCGGA,0.432
8,GCAAAAAA,0.0316
9,CAGGAATC,-0.0613
10,TATAATGA,-0.104
11,AGAACCAG,-0.0575
12,GGTTCAAA,0.197
13,ATTAAGTG,-0.15
14,CGCACCAG,0.139
15,CGTATCCC,0.0368
16,GCGCGGGA,0.14
17,GCGCCACC,-0.115
18,ATTTCATC,-0.0227
19,AGGCCTTC,-0.14
20,CGACCTTC,0.0839
21,ACCTGAGT,-0.125
22,AGATACAG,-0.0802
23,GATCTCGA,0.102
24,ACTGGCAG,-0.124
25,GCATGTGA,-0.0553

row,Sequence,PBM E-score
1,GACATGCA,-0.125
2,ATGGGTCG,0.165
3,GTCGCATA,-0.0856
4,CGACAGCA,0.0127
5,AAACAGAA,-0.219
6,CCTCACTA,-0.0573
7,ATCGGCCC,0.379
8,TATTAGGA,-0.123
9,CTCATACA,-0.0407
10,CGGCGTAA,0.219
11,AATTCCAA,-0.121
12,CTTCCAGA,-0.303
13,AGGATCCC,-0.0107
14,GCTCCTAA,-0.207
15,ACACGCAG,-0.093
16,GGGATAAA,0.148
17,CCCTCGCA,-0.105
18,GGTCAAAC,0.0779
19,GCAACTGA,-0.102
20,GTCGGAAC,0.306
21,GCTCAGAA,-0.104
22,ACTTTAAG,0.0322
23,CCTTTTGC,-0.133
24,ACGCCTGC,-0.178
25,GCATCCGC,0.0714

row,Sequence,PBM E-score
1,CCGCACGC,0.0435
2,ACCTTACA,-0.22
3,CCCTTGTC,-0.104
4,GGAGATAA,0.455
5,ATAGTGCC,0.0688
6,GCGACGAA,0.0485
7,ACGTAAAA,-0.0775
8,CCTTTAAA,-0.098
9,AAGCAATG,-0.0736
10,TAAGGCTA,-0.0505
11,AAGAGATT,0.0278
12,CCGTTCGC,0.14
13,AACTGACG,-0.0746
14,AGTTGAAG,-0.0891
15,CCGCAGCC,0.107
16,CACATAAC,-0.142
17,ACACCCTA,-0.277
18,AAGCAACC,-0.0771
19,AACACATC,-0.0084
20,GGTTACTA,-0.0409
21,ATCCGACG,0.333
22,AGAGCGCT,-0.105
23,AGGACGAT,-0.16
24,GGACGGTA,0.197
25,AGGAACCG,0.204

row,Sequence,PBM E-score
1,CACGCGAC,-0.0352
2,CGCGCATA,0.193
3,ATCGGAAT,0.363
4,CCTCTGGA,-0.0765
5,ACATAAGG,0.0636
6,GCCTGTCA,-0.192
7,ATTTAAAC,-0.0807
8,AGTCACTG,-0.229
9,GGCTGGAC,-0.0206
10,CTCCTTAA,0.015
11,ACGAACTC,0.0738
12,ATATGTCG,-0.041
13,TAACCTTA,-0.0378
14,AATATACA,-0.113
15,GGTGGTGA,0.107
16,CGTGTTCA,-0.0907
17,ACGCTAAT,0.106
18,CAGGACGG,-0.137
19,ATCTCAAT,-0.137
20,ACAGTGCT,-0.138
21,CGCTCGCC,0.0992
22,AGTCTCCA,-0.219
23,CTCCGCGA,0.264
24,GCTCAAGA,-0.171
25,CTGTATTC,0.0691

row,Sequence,PBM E-score
1,GGTGTGTA,-0.17
2,CCGATGAG,0.23
3,CCGAATCC,0.338
4,CCATTGCC,0.0075
5,ACCATGAT,-0.0493
6,CTAGTCAA,-0.145
7,CGGCCAAG,0.195
8,GGGTAGAC,0.0798
9,TTGGCAAA,-0.148
10,CTCTTGCA,-0.0981
11,TAATGGCA,-0.151
12,ATCTCACC,0.0112
13,ACATCCTC,-0.00209
14,ACCTTGAC,-0.0897
15,AAAGCGCC,0.17
16,CGTTCCTA,-0.0471
17,AAATGAAT,-0.213
18,AGATAATA,-0.0137
19,AGAGAAAT,-0.0325
20,AAACGTGG,-0.16
21,GAGGTGCA,0.0507
22,CGACTATA,-0.0251
23,CTATCCAC,-0.0523
24,AGCCCTAA,0.0359
25,ACACACGA,-0.175

row,Sequence,PBM E-score
1,ACTGGATC,-0.0304
2,ATACTGCA,0.175
3,CGCCACTC,0.121
4,CAGATCAG,-0.123
5,CTTATATC,0.21
6,AGGATAGA,-0.187
7,CCTAATCA,-0.0052
8,AGATCCCC,0.087
9,CTCTTAAA,0.0174
10,ATGGCATA,-0.145
11,AGTCTCGG,0.303
12,AGCCCATG,-0.177
13,AAGGCTCT,-0.0279
14,CACTCACC,-0.0448
15,AGAAGAAT,-0.034
16,AGTCCCCC,-0.24
17,ATGTCCCC,0.0493
18,ATTACTTC,0.00222
19,CCTTTGGA,-0.215
20,TTCGAAAA,-0.15
21,AGGATGAG,-0.3
22,TAGCAGAA,-0.122
23,ATTTAGCA,-0.12
24,ACGTGGAA,-0.0358
25,CCTCTGGC,-0.0177

row,Sequence,PBM E-score
1,AGGGAGAC,-0.122
2,ATACTCCC,0.115
3,AAGTAGTA,-0.111
4,ACCAAGAA,-0.117
5,CGCGAATC,-0.0268
6,GTGCTACA,-0.335
7,CATCTGCA,-0.0977
8,GGATCCCC,0.249
9,CTTGGCCC,-0.219
10,GTTGCCCA,0.00024
11,AGCTTGTG,-0.21
12,GGGCTAAC,-0.0168
13,AACTCATC,-0.0345
14,CGGCGTGC,0.133
15,CCGTTCAA,0.19
16,AACGGAAG,0.186
17,GTAATCCA,0.00769
18,AGAATCAA,-0.12
19,CCGAAACC,0.298
20,ACTCCATG,0.046
21,CACGCTAG,-0.217
22,AACACTGA,-0.0739
